The whole screen tested about 110,000 compounds, of which about 230 (0.21%) showed an effect of 50% or more. Some of the results follow.
Biological target: DPAP1 (Plasmodium falciparum, UniProt Q8IIJ9)
Test: primary screen, percent inhibition; read by cleavage of a fluorogenic dipeptide substrate; higher = more effect of the substance
Set-up: species or system P. falciparum D10 trophozoite lysates; single well
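Note: 30 min substrate incubation versus DMSO and 10 µM JCP410 controls.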

DPAP1, sequence (Q8IIJ9 whole entry, looked up): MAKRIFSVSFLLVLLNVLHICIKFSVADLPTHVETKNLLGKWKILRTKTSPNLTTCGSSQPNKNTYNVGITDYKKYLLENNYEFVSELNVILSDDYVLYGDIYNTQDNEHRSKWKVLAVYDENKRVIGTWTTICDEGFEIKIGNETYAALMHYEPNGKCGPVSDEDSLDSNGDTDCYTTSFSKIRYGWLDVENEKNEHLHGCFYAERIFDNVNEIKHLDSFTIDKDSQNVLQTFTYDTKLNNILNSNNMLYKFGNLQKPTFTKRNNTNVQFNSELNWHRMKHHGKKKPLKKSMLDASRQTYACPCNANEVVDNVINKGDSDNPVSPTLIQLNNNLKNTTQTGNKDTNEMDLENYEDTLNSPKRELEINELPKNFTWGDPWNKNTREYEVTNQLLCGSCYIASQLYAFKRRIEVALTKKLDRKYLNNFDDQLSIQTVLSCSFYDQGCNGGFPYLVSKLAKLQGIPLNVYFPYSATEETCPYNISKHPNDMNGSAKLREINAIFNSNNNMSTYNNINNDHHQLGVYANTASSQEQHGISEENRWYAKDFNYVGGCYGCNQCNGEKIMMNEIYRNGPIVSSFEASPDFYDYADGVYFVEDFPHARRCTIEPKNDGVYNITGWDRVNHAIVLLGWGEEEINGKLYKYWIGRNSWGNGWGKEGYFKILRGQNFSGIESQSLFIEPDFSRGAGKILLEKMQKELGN

Q: With `CSc1ccc(C2C(C#N)=C(N)Oc3[nH]nc(-c4ccccc4)c32)cc1` (stereo not drawn) as the compound, how does the “% Inhibition @ 10 uM” value read?
A: The value was -1.06%.

Q: `O=[N+]([O-])c1ccccc1S(=O)(=O)Nc1ccccn1` was tested. Which “% Inhibition @ 10 uM” value did it give?
A: The value was -2.66%.

Q: For `N#CCNC(=O)[C@H](Cc1ccc(Cl)cc1)NC(=O)c1ccccc1`, which “% Inhibition @ 10 uM” value is on record?
A: The value was -1.83%.

Q: How did the “% Inhibition @ 10 uM” value turn out when `CCOC(=O)N1CCN(C(c2ccccn2)c2cc(Cl)c3cccnc3c2O)CC1` (stereo not drawn) was run?
A: The value was 40.9%.

Q: How did the “% Inhibition @ 10 uM” value turn out when `CCCCCC(=O)Nc1sc(C)c(C)c1C#N` was run?
A: Its value is 0.385%.

Q: Which “% Inhibition @ 10 uM” value does the source give for `COc1ccc2oc(=O)cc(CN3CCN(Cc4ccc(C)cc4)CC3)c2c1` here?
A: The value was 8.37%.

Q: `Cn1c(C(=O)N2CCCC(C(=O)NCc3ccc4c(c3)OCO4)C2)cc2sccc21` (stereo not drawn) was tested. Which “% Inhibition @ 10 uM” value did it give?
A: The value was -8.57%.

Q: How did the “% Inhibition @ 10 uM” value turn out when `C/C(=C\c1ccccc1)CN1CCN(c2ccc(F)cc2)CC1` was run?
A: The value was -1.5%.

Q: `Cn1c(=O)n(C)c2cc(/C=C3/SC(=O)N(Cc4ccc(Cl)cc4)C3=O)ccc21` was tested. Which “% Inhibition @ 10 uM” value did it give?
A: The value was -6.25%.

Q: Which “% Inhibition @ 10 uM” value does the source give for `O=S(=O)(c1ccc2oc3ccc(S(=O)(=O)N4CCCC4)cc3c2c1)N1CCCC1` here?
A: The value was 0.528%.

Q: How did the “% Inhibition @ 10 uM” value turn out when `CC1(C)CC(=O)C(/C=N/CCCC(=O)O)=C(O)C1` was run?
A: Its value is 3.66%.

Q: Which “% Inhibition @ 10 uM” value does the source give for `CCOc1ccc(N2C(=O)CC(N(CCc3ccc(S(N)(=O)=O)cc3)C(C)=O)C2=O)cc1` (stereo not drawn) here?
A: The value was -9.25%.

Q: How did the “% Inhibition @ 10 uM” value turn out when `Cc1ccc(OCC(=O)Nc2ccc(S(=O)(=O)N3CCCCCC3)cc2)cc1` was run?
A: Its value is 7.78%.

Q: For `CC(C)Cc1c(C#N)c(N)nc(SCC(=O)c2ccc(-c3ccccc3)cc2)c1C#N`, which “% Inhibition @ 10 uM” value is on record?
A: Its value is 16.2%.

Q: For `Fc1cc(Br)ccc1-n1ncnc1-c1ccncc1`, which “% Inhibition @ 10 uM” value is on record?
A: Its value is -0.0953%.

Q: With `COc1ccccc1NC(=O)NC1(C(F)(F)F)Oc2ccccc2O1` as the compound, how does the “% Inhibition @ 10 uM” value read?
A: Its value is 3.97%.

Q: For `CC(=O)C1=C(C)Nc2ncnn2C1c1ccc(Cl)cc1Cl` (stereo not drawn), which “% Inhibition @ 10 uM” value is on record?
A: Its value is 0.408%.

Q: Which “% Inhibition @ 10 uM” value does the source give for `COc1ccc(S(=O)(=O)NCC(=O)Nc2ccccc2Br)cc1OC` here?
A: The value was -5.39%.

Q: For `CC(=O)NS(=O)(=O)c1ccc(NC(=O)c2cccs2)cc1`, which “% Inhibition @ 10 uM” value is on record?
A: Its value is 2.4%.

Q: Which “% Inhibition @ 10 uM” value does the source give for `COc1cccc2c1OC(c1cccnc1)N1N=C(c3cc(Cl)ccc3O)CC21` (stereo not drawn) here?
A: The value was -5.36%.

Q: With `Cc1ccc(/C=C/C(O)=C2/C(=O)N(C)C3(C)CC2c2ccccc2O3)cc1` (stereo not drawn) as the compound, how does the “% Inhibition @ 10 uM” value read?
A: Its value is 1.5%.

Q: How did the “% Inhibition @ 10 uM” value turn out when `CN1CCN(C(=O)/C(=C/c2cn(S(=O)(=O)N(C)C)c3ccccc23)NC(=O)c2ccccc2)CC1` was run?
A: The value was 1.43%.

Q: With `O=C1CCCc2c1nc(-c1ccc(F)cc1)n2O` as the compound, how does the “% Inhibition @ 10 uM” value read?
A: Its value is 0.215%.

Q: For `Cc1cc(Cl)ccc1OCC(=O)N(Cc1ccccc1)c1ccccn1`, which “% Inhibition @ 10 uM” value is on record?
A: Its value is -1.35%.

Q: With `CCN(CC)S(=O)(=O)c1ccc(-c2csc(Nc3ccccc3OC)n2)cc1` as the compound, how does the “% Inhibition @ 10 uM” value read?
A: The value was -9.97%.

Q: How did the “% Inhibition @ 10 uM” value turn out when `Cc1ccc(C2CC(=O)NC3=C2C(=O)CC(C)(C)C3)cc1` (stereo not drawn) was run?
A: The value was -0.668%.

Q: Which “% Inhibition @ 10 uM” value does the source give for `Cc1nn(C)c2c1c(-c1ccccc1)cc(=O)n2CCOc1ccccc1` here?
A: Its value is 5.73%.

Q: For `COC1CCCCC(=O)N1S(=O)(=O)c1ccc(C)cc1` (stereo not drawn), which “% Inhibition @ 10 uM” value is on record?
A: Its value is -4.35%.

Q: How did the “% Inhibition @ 10 uM” value turn out when `Cc1cc(C)c(Cn2c3ccccc3c3cnn(CC(=O)N4CCCC4)c(=O)c32)c(C)c1` was run?
A: The value was -11.1%.

Q: For `O=C(O)c1ccc(COc2ccc(Cl)cc2Cl)cc1`, which “% Inhibition @ 10 uM” value is on record?
A: The value was -7.9%.

Q: Which “% Inhibition @ 10 uM” value does the source give for `CN1C(=O)NC(NC(=O)c2ccc(C(C)(C)C)cc2)(C(F)(F)F)C1=O` (stereo not drawn) here?
A: Its value is -8.28%.

Q: `CCO/C(O)=C1\C(C)=NC2=C(C(=O)CCC2)C1c1cccc([N+](=O)[O-])c1` (stereo not drawn) was tested. Which “% Inhibition @ 10 uM” value did it give?
A: The value was -1.78%.

Q: How did the “% Inhibition @ 10 uM” value turn out when `C(#Cc1cccc2ccccc12)CN1CCOCC1` was run?
A: Its value is 1.13%.

Q: `O=C(NCc1cccc(Cl)c1)C1CCN(c2ncnc3c2nc2n3CCCCC2)CC1` was tested. Which “% Inhibition @ 10 uM” value did it give?
A: The value was -6.67%.

Q: How did the “% Inhibition @ 10 uM” value turn out when `NC(=O)c1cc(NC(=O)c2ccccc2Cl)c(Cl)cc1Cl` was run?
A: The value was -9.87%.

Q: For `CCC(=O)n1nc(-c2ccco2)nc1SCc1ccccc1`, which “% Inhibition @ 10 uM” value is on record?
A: Its value is 0.778%.

Q: With `Cn1c2c(c(=O)n(C)c1=O)C(c1cccc(Cl)c1)C(C#N)=C(N)O2` (stereo not drawn) as the compound, how does the “% Inhibition @ 10 uM” value read?
A: The value was -0.736%.

Q: `O=C1c2ccccc2C(=O)N1CCCc1nc(-c2ccccc2)no1` was tested. Which “% Inhibition @ 10 uM” value did it give?
A: Its value is 3.51%.

Q: For `CCOC(=O)N1CCC(NCc2ccc(Cl)cc2Cl)CC1`, which “% Inhibition @ 10 uM” value is on record?
A: Its value is -2.03%.

Q: With `Cc1ccc(NC(=O)c2ccc(CNS(=O)(=O)c3cccc(Cl)c3)cc2)cc1` as the compound, how does the “% Inhibition @ 10 uM” value read?
A: Its value is 5.69%.

Q: For `COc1ccc(C2CC(c3ccccc3OC(F)F)Nc3ncnn32)cc1` (stereo not drawn), which “% Inhibition @ 10 uM” value is on record?
A: Its value is -5.05%.

Q: How did the “% Inhibition @ 10 uM” value turn out when `CC1CN(C(=O)Cn2cc(S(=O)(=O)Cc3cccc(Cl)c3)c3ccccc32)CC(C)O1` (stereo not drawn) was run?
A: Its value is -6.47%.

Q: How did the “% Inhibition @ 10 uM” value turn out when `C=CCNC(=O)CN(c1ccc(C)cc1)S(=O)(=O)c1ccc(F)cc1` was run?
A: The value was 1.35%.

Q: Which “% Inhibition @ 10 uM” value does the source give for `C/C(=N/O)c1[nH]c(C)c(/C(C)=N\O)c1C` here?
A: Its value is 3.01%.

Q: For `CCOc1ccccc1Nc1nc(N)nc(CN2CCCCC2C)n1` (stereo not drawn), which “% Inhibition @ 10 uM” value is on record?
A: The value was -4.52%.

Q: For `O=C(NC1CCCCCC1)C1CCN(S(=O)(=O)c2cccc3nsnc23)CC1`, which “% Inhibition @ 10 uM” value is on record?
A: The value was -5.22%.

Q: With `CC(=O)N1CCN(CCCc2ccccc2)CC1` as the compound, how does the “% Inhibition @ 10 uM” value read?
A: The value was -1.86%.

Q: Which “% Inhibition @ 10 uM” value does the source give for `CCOC(=O)N1CCC(NC(=O)c2cc3c(=O)oc4ccc(C)cc4c3s2)CC1` here?
A: The value was 9.02%.

Q: For `COc1ccc(S(=O)(=O)Nc2cc(Cl)cc(Cl)c2)cc1`, which “% Inhibition @ 10 uM” value is on record?
A: Its value is 0.135%.

Q: Which “% Inhibition @ 10 uM” value does the source give for `COC(=O)c1ccc2oc(=O)c(S(=O)(=O)c3ccc(F)cc3)cc2c1` here?
A: The value was 0.44%.

Q: Which “% Inhibition @ 10 uM” value does the source give for `Cc1ccc2cc3cc(C(=O)N4CC(C)CC(C)C4)oc3nc2c1` (stereo not drawn) here?
A: Its value is -5.22%.

Q: For `COc1ccc(CNc2cccc(N(C)C)c2)cc1`, which “% Inhibition @ 10 uM” value is on record?
A: Its value is 2.7%.

Q: Which “% Inhibition @ 10 uM” value does the source give for `COc1ccc(F)c(C2NCc3ccccc3-n3cccc32)c1` (stereo not drawn) here?
A: The value was -3.34%.

Q: `CCCCc1ccc(NS(=O)(=O)c2ccc(OC)cc2)cc1` was tested. Which “% Inhibition @ 10 uM” value did it give?
A: The value was 3.47%.

Q: Which “% Inhibition @ 10 uM” value does the source give for `NCCCNC12CC3CC(CC(C3)C1)C2` here?
A: Its value is -0.424%.

Q: `Cc1c(C(=O)N2CCOCC2)oc2c1-c1nn(CC(=O)NCCC(C)C)cc1CC2` was tested. Which “% Inhibition @ 10 uM” value did it give?
A: Its value is 1.45%.

Q: With `CC1(c2ccc3ccccc3c2)NC(=O)NC1=O` (stereo not drawn) as the compound, how does the “% Inhibition @ 10 uM” value read?
A: The value was -5.28%.

Q: How did the “% Inhibition @ 10 uM” value turn out when `OC1CCCN(C/C=C/c2ccccc2)C1` (stereo not drawn) was run?
A: Its value is 8%.

Q: With `CC(C)(C#N)C(OC(=O)c1ccco1)c1ccccc1` (stereo not drawn) as the compound, how does the “% Inhibition @ 10 uM” value read?
A: The value was 0.00178%.

Q: With `O=C(O)c1ccccc1-c1ccccc1C(=O)NCc1cccs1` as the compound, how does the “% Inhibition @ 10 uM” value read?
A: The value was 1.88%.

Q: For `CCC(Oc1ccccc1)C(=O)Nc1cc(C)ccc1C` (stereo not drawn), which “% Inhibition @ 10 uM” value is on record?
A: The value was -2.22%.

Q: With `Cn1c(=O)c2c(nc(CN3CCN(Cc4ccccc4)CC3)n2Cc2cccc(Cl)c2)n(C)c1=O` as the compound, how does the “% Inhibition @ 10 uM” value read?
A: Its value is -0.499%.

Q: How did the “% Inhibition @ 10 uM” value turn out when `CCOC(=O)c1c(C)[nH]c(C)c1S(=O)(=O)N1CCC(N2CCCCC2)CC1` was run?
A: The value was -2.15%.
